Laboratory results published in PMC10466050, “A comparative study of human and zebrafish glucocorticoid receptor activities of natural and pharmaceutical steroids” (Frontiers in Endocrinology, 2023).

Assays:
hGR = biological target: T1, hGR (Homo sapiens, UniProt P04150); assay: Whole-cell ligand competition assay with [3H]-dexamethasone, HMLN-hGR cells; type: binding; parameters: expressed in transfected cells; settings: for IC50: HMLN-hGR whole cells, 1 nM [3H]-DEX as tracer, 3 h; for RBA (relative binding affinity): HMLN-hGR, DEX = 100
T1 sequence (P04150 1-777): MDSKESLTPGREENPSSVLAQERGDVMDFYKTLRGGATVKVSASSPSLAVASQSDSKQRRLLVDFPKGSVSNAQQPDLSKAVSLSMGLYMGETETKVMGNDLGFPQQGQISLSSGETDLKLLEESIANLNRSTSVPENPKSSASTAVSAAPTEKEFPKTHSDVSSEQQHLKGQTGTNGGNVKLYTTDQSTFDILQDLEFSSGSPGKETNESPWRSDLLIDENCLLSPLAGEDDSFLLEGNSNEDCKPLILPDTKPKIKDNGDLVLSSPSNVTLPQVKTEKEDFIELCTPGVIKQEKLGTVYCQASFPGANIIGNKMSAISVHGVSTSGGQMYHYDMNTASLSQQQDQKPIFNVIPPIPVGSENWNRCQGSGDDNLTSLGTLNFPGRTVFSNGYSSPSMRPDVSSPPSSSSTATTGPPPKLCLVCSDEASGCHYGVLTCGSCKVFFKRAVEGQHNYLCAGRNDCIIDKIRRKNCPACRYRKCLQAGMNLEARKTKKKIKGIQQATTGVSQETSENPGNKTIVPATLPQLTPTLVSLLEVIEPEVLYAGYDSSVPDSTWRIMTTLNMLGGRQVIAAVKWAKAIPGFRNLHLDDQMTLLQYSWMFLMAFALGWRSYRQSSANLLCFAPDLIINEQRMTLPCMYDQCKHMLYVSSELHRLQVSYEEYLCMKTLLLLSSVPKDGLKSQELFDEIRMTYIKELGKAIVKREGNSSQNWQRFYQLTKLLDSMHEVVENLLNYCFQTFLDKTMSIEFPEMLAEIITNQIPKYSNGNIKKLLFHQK
Method: (§1) After 3 h, unbound material was aspirated, and cells were washed three times with cold PBS in order to remove additional unbound material. Then, 150 μl of lysis buffer (250 mM Tris phosphate pH 7.8, 0.1% triton X-100) was added and plates were shaked for 5 min. 50 μl of the total cell lysate was mixed with of 50 μl of LSC-cocktail (Emulsifier-Safe, Perkin Elmer) and [3H] bound radioactivity was liquid scintillation counted (MicroBeta trilux, Perkin Elmer). Protein concentration of 50 μl of the total cell lysate was measured by Bio-Rad protein assay and used to normalize bound radioactivity values expressed in dpm. Results were plotted as measured dpm versus concentration of tested compound. […] All the experiments were performed in quadruplicates and in at least three independent experiments.
(§2) For ligand binding assays, dose-response curves were also fitted using GraphPad Prism.

zfGR = zfGR (Danio rerio, UniProt Q1XHK0); assay: Whole-cell ligand competition assay with [3H]-dexamethasone, UMLN-zfGR cells; type: binding, zebrafish; settings: for RBA (relative binding affinity): UMLN-zfGR, DEX = 100
Method: as §1, §2

Row | SMILES | IC50 (hGR) | RBA (relative binding affinity) (hGR) | IC50 (zfGR; UMLN-zfGR whole cells, 1 nM [3H]-DEX as tracer, 3 h, read-out: IC50) | RBA (relative binding affinity) (zfGR) | IC50 (zfGR)
1 | CCOC1=CC2=C(C)CC3C(C(O)CC4(C)C3CC(C)C43OCOC34COCO4)C2(C)CC1 (stereo not drawn) [forbimenol] | 409 nM | 1.41 | 539 nM | 0.58 | 
2 | C[C@]12CCC(=O)C=C1CC[C@@H]1[C@@H]2[C@@H](O)C[C@]2(C=O)[C@@H](C(=O)CO)CC[C@@H]12 [aldosterone] | 794 nM |  |  | 0.226 | 1370 nM
3 | CSCC(=O)C1C(C)CC2C3CCC4=CC(=O)C=CC4(C)C3(F)C(O)CC21C (stereo not drawn) [RU24782] |  | 13.1 |  |  | 109 nM

Where two headings read alike, the source gives them in different places.
